According to PubChem BioAssay AID493208 (National Center for Advancing Translational Sciences (NCATS), 2011):
Screen size: about 44,000 compounds; about 340 (0.77%) were called active. About 5% were inconclusive and are not listed. Calls follow the shape of the dose curve; as a rule, active = well fitted inhibition curve with a large enough effect; inconclusive = small, poorly fitted or top-dose-only effect; inactive = flat fitted curve, though single readings scatter. This is one part of the list.

experiment: Acumen qHTS Assay for Inhibitors of the mTORC1 Signaling Pathway in MEF (Tsc2-/-, p53-/-) Cells: Sytravon; conditions: phospho-rpS6 immunofluorescence/PI, 24 h; series mostly up to 38.3 µM; activity change, negative = inhibition: at the top concentration; also: nearly all actives have a fitted effect of over 50% in size;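 as to activity change, negative = inhibition: plate controls were DMSO for no effect and rapamycin for full effect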
Procedure, shortened: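 Readout is phospho-S6 Alexa 488 signal normalized to PI per well, reported as % active cells with thresholds set from rapamycin (7.5 nM) and DMSO controls. Cells: Tsc2-/-, p53-/- MEFs, 24 hrs compound at 37 C; PI cell number serves as viability.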
Potency is read from the fitted curve at half-maximal effect.

Row | SMILES | activity change, negative = inhibition | Potency
1 | CCCN1CCCc2cc(CN(CCCN3CCOCC3)C(=O)Nc3ccc(Cl)c(Cl)c3)ccc21 | inactive: -12.4% | –
2 | Cc1cc2[nH]c(=O)c(=O)[nH]c2cc1S(=O)(=O)N1CCN(c2ccccc2F)CC1 | inactive: 1.16% | –
3 | COC(=O)c1c(NC(=O)c2ccc(C(C)(C)C)cc2)sc2c1CCC(C)C2 (centres undefined) | inactive: 0.371% | –
4 | CCOC(=O)c1c(NC(=O)COc2ccccc2)sc(C(C)=O)c1C | inactive: -0.818% | –
5 | COc1cc(C2CC(=O)c3c([nH]c(C(=O)OC4CCCC4)c3C)C2)cc(OC)c1OC (centres undefined) | inactive: -3.6% | –
6 | Clc1ccc(-c2cn3cc(Cc4ccccc4)sc3n2)cc1 | inactive: -3.67% | –
7 | CCc1ccc(NC(=O)CNC(=O)Cn2c(C)cc3ccccc3c2=O)cc1 | inactive: 0.308% | –
8 | CCOc1ccc(CCNC(=O)c2ccc(CSCc3ccccc3C)o2)cc1OCC | inactive: -14.3% | –
9 | O=C(CSc1nc(=O)n(Cc2ccncc2)c2c1CCC2)Nc1cccc(F)c1 | inactive: -18.3% | –
10 | CCN(C(=O)C(NS(=O)(=O)c1ccc(Br)s1)c1ccccc1)c1ccc(C)c(C)c1 (centres undefined) | inactive: -5.43% | –
11 | CC1(C)CC(=O)c2cc(-c3nc(-c4ccc(F)cc4)cs3)c(=O)[nH]c2C1 | inactive: -14.9% | –
12 | CCC(=O)N1c2ccccc2CC1C(=O)NCCN1CCN(c2cc(Cl)ccc2C)CC1 (centres undefined) | inactive: 14.9% | –
13 | COc1ccc(C)cc1NC(=O)Cn1cc(S(=O)(=O)N2CCC(C)CC2)c2ccccc2c1=O | inactive: 3.6% | –
14 | O=C(Cc1ccc(Cl)cc1)Nc1ccc2oc(-c3ccc(F)cc3)nc2c1 | inactive: -22.1% | –
15 | Cc1cc(C)cc(OCC(=O)N2CCC(c3nc4ccccc4o3)CC2)c1 | inactive: -0.58% | –
16 | COC(=O)c1ccccc1NC(=O)C(Cc1ccccc1)N1Cc2ccccc2C1=O (centres undefined) | inactive: 2.68% | –
17 | CCOc1ccc(NC(=O)c2c(NCc3cc(OC)c(OC)cc3OC)sc3c2CCCC3)cc1 | inactive: -11.9% | –
18 | CC(=O)Nc1ccc(S(=O)(=O)NCC2CCC(C(=O)NCCc3ccc(C)cc3)CC2)cc1 (centres undefined) | inactive: -2.55% | –
19 | COc1ccc(NC(=O)Cn2c(-c3ccc(F)cc3)cc(C(C)=O)c2C)c(OC)c1 | inactive: -11.2% | –
20 | O=S(=O)(c1ccccc1)n1nc(-c2ccc(Cl)cc2)nc1NCc1ccccc1 | – | active: 14.7 µM
21 | CC(=O)c1cccc(NC(=O)c2ccc3c(c2)N(Cc2ccc(C)cc2)CCS3)c1 | inactive: 1.54% | –
22 | COc1ccc(CCNC(=O)Cn2c(=O)nc(-c3ccccc3)c3cc(Cl)ccc32)cc1OC | inactive: 2.43% | –
23 | N#C/C(=C\c1ccc(F)cc1)c1nc(-c2ccc(-c3ccccc3)cc2)cs1 | inactive: -2.24% | –
24 | CCCC1=Nc2cc(C(=O)NC3CCCCC3)ccc2Sc2ccc(C)cc21 | inactive: -2.53% | –

Row | SMILES | activity change, negative = inhibition | Potency
25 | Cc1cc(C)c2c(=O)c3c(oc2c1)C(=O)N(CCCOC(C)C)C3c1ccccc1F (centres undefined) | inactive: 1.36% | –
26 | COCCCNc1nc2c(c(=O)[nH]c(=O)n2C)n1CC(O)COc1ccc(Cl)cc1 (centres undefined) | inactive: 3.06% | –
27 | COc1cccc(CC(=O)Nc2c(C(=O)N3CCN(c4ccccc4F)CC3)oc3ccccc23)c1 | inactive: -1.18% | –
28 | CCOC(=O)c1nc(NCc2ccc(Cl)cc2)c2c(C)noc2n1 | inactive: -2% | –
29 | CC1=C(C(=O)Nc2ccccc2C)C(c2ccccn2)n2ncnc2N1 (centres undefined) | inactive: 0% | –
30 | CCC(=O)C1=C(c2ccc(C)cc2)N(C(=O)CC)n2c(nnc2C2CCCCC2)S1 | inactive: 0.337% | –
31 | Cc1cccc(C)c1NC(=O)CS(=O)(=O)c1nc(-c2ccc(Cl)cc2)cn1-c1ccccc1 | inactive: 15.1% | –
32 | CC(=O)N1CCc2cc(S(=O)(=O)NC(CC(C)C)C(=O)Nc3cc(C)cc(C)c3)ccc21 (centres undefined) | inactive: -0.828% | –
33 | Cc1c(Cl)cccc1NC(=O)CCOc1ccccc1 | inactive: 4.69% | –
34 | CCOc1ccc(Cn2c(=O)sc3ccccc32)cc1 | inactive: 9.36% | –
35 | Cc1cccn2c(=O)c3cc(C#N)c(=O)n(-c4nnc(SCc5ccc(Cl)cc5)s4)c3nc12 | inactive: 0.272% | –
36 | Cc1cc(C)c2c(c1)c(C)cc1nnc(SCc3ccccc3C#N)n12 | inactive: 0.178% | –
37 | Cc1ccc(NC(=O)CN2C(=O)COc3ccc(S(=O)(=O)NC4CCCC4)cc32)cc1N(C)C | inactive: -0.443% | –
38 | Cc1ccc(C)c(Cn2c(=O)c3c(nc4n3CCN4c3ccccc3)n(C)c2=O)c1 | inactive: 9.17% | –
39 | CCSc1ncc(Cl)c(C(=O)Nc2sc3c(c2C(=O)NCCCOC)CCCC3)n1 | inactive: 0% | –
40 | COc1ccc(NC(=O)CSc2nc(-c3cccc(C)c3)[nH]c2-c2ccccc2)cc1OC | inactive: -6.97% | –
41 | CC(C)c1noc(-c2ccccc2OCC(=O)Nc2cccc([N+](=O)[O-])c2)n1 | inactive: 1.64% | –
42 | CC(C)Sc1ncc(Cl)c(C(=O)Nc2ccc(S(=O)(=O)N3CCCCC3)cc2)n1 | inactive: -2.51% | –
43 | Cc1ccc(NC(=O)C2CCN(S(=O)(=O)c3cccc4nonc34)CC2)cc1C | inactive: -9.21% | –
44 | Cc1ccc(-c2cc3nc(-c4ccccc4)cc(C(F)(F)F)n3n2)cc1 | inactive: 5.55% | –
45 | COc1cc(C2CC(=O)Oc3c2c(=O)[nH]c2ccccc32)cc(OC)c1OC (centres undefined) | inactive: 0.513% | –
46 | O=C(Oc1ccccc1F)c1nc(SCc2ccc(F)cc2)ncc1Cl | inactive: -2.3% | –
47 | CCOc1ccc(Nc2c(S(=O)(=O)c3ccccc3)cnc3ccc(F)cc23)cc1 | inactive: -6.03% | –
48 | COc1ccc(-c2nc3scc(CCNS(=O)(=O)c4ccc5c(c4)OCCO5)n3n2)cc1 | inactive: -6.35% | –

Row | SMILES | activity change, negative = inhibition | Potency
49 | CC(=O)N1CCc2cc(Br)cc(S(=O)(=O)CCC(=O)N3CCN(c4ccccc4Cl)CC3)c21 | inactive: -21% | –
50 | Cc1ccc(CN(C(=O)COc2cc(C)c(Cl)c(C)c2)c2ccccn2)o1 | inactive: -0.843% | –
51 | CCOc1ccc(-c2c(C)nn3c(C)c(C(=O)Nc4cc(C)cc(C)c4)cnc23)cc1OCC | inactive: -9.87% | –
52 | Cc1cc(C)c2sc(N3CCN(C(=O)c4ccc(N(C)C)cc4)CC3)nc2c1 | inactive: 0.649% | –
53 | Cc1ccc(S(=O)(=O)c2c(O)cc(C)c(NS(=O)(=O)c3ccc(Cl)cc3)c2C)cc1 | inactive: -9.72% | –
54 | COc1ccccc1N1CCN(S(=O)(=O)c2c(C)nc3sccn3c2=O)CC1 | inactive: 2.49% | –
55 | CC(C)c1nn2c(=O)cc(COC(=O)c3ccco3)nc2s1 | inactive: -9.28% | –
56 | O=C(CSc1nc(=O)[nH]c2c1CCCC2)NCc1ccccc1 | inactive: -0.645% | –
57 | COc1ccc(N2C(=O)CSC23C(=O)N(CC(=O)NCCc2ccccc2)c2ccccc23)cc1 (centres undefined) | inactive: -4.44% | –
58 | COc1ccccc1C(=O)Nc1ccc(C(=O)OCc2cc(=O)n3nc(C4CC4)sc3n2)cc1 | inactive: 0% | –
59 | Cc1nn2c(C)c(C(=O)NC(C)(C)C)cnc2c1-c1ccc(F)cc1 | inactive: -1.08% | –
60 | Cc1c(C)c2cc3c(c(C)c2oc1=O)OCN(CCc1ccc(F)cc1)C3 | inactive: -4.25% | –
61 | Cc1ccc(N2CC(NC(=O)c3cc4ccccc4o3)CC2=O)cc1 (centres undefined) | inactive: 0.384% | –
62 | CCCCNC(=O)c1cc2n(n1)CCCN(Cc1ccc(C)cc1)C2=O | inactive: 0% | –
63 | COc1ccc(NC(=O)Cn2c(=O)n(Cc3ccccc3)c(=O)c3sc4ccccc4c32)cc1 | inactive: 3.44% | –
64 | CCCCN(C)CCNC(=O)c1cc2c(=O)n(C)c3ccccc3c2n1C | inactive: -12.8% | –
65 | COc1ccc(CNC(=O)CCc2c(C)c3cc4c(C)coc4c(C)c3oc2=O)cc1OC | inactive: 3.74% | –
66 | CN1C(=O)c2ccccc2Sc2ccc(NC(=O)c3ccc(C(F)(F)F)cc3)cc21 | inactive: -0.355% | –
67 | N#Cc1ccccc1NS(=O)(=O)c1ccc(N2CCCCS2(=O)=O)cc1 | inactive: 0% | –
68 | CCCc1nn2c(=O)cc(COC(=O)c3ccc(NC(=O)COc4ccccc4)cc3)nc2s1 | inactive: 3.15% | –
69 | CCn1cc(C(=O)N2CCN(c3ccccc3)CC2)c(=O)c2cc(S(=O)(=O)N3CCOCC3)ccc21 | inactive: -4.38% | –
70 | CCC(Oc1ccc(F)cc1)C(=O)Nc1c(C(=O)c2ccc(C)cc2)oc2ccccc12 (centres undefined) | inactive: -2.19% | –
71 | COC(=O)c1cc2oc3ccccc3c2n1Cc1ccc(Cl)cc1 | inactive: 0.293% | –
72 | COc1ccc(-c2nc3scc(CCNS(=O)(=O)c4ccc(F)cc4C)n3n2)cc1 | inactive: -7.83% | –

Row | SMILES | activity change, negative = inhibition | Potency
73 | COc1cccc(CN2c3ccccc3-c3nc(SCC(=O)Nc4ccccc4Cl)ncc3S2(=O)=O)c1 | inactive: -6.76% | –
74 | COc1ccc(Nc2cc(C(=O)NCCCN3CCN(c4ccccc4F)CC3)c3ccccc3n2)c(OC)c1 | inactive: -1.06% | –
75 | Cc1ccc(-c2ccc(=O)n(CCC(=O)NCCc3ccccc3)n2)cc1 | inactive: -6.7% | –
76 | CCN(CC)CCNC(=O)c1cc2c(=O)n(C)c3cc(Cl)ccc3c2s1 | inactive: -9.72% | –
77 | CCOC(=O)c1[nH]c(C)c(CCC(=O)NCc2ccc(CC)cc2)c1C | inactive: 9.93% | –
78 | O=C1CSC2(C(=O)N(Cc3cccc(F)c3)c3ccccc32)N1c1cccc(C(F)(F)F)c1 (centres undefined) | inactive: -1.69% | –
79 | CC(C)COc1ccc(C(=O)N2CCN(CCc3ccncc3)CC2)cc1 | inactive: -4.67% | –
80 | COc1ccc(N(C)C(=O)c2cn(C)c(=O)c3cc(OC)c(OC)cc23)cc1 | inactive: -21.9% | –
81 | Cc1ccc(Cn2c(CO)cnc2SCC(=O)Nc2ccc(C)c(Cl)c2)cc1 | inactive: -6.31% | –
82 | COc1ccc(NC(=O)c2ccc3nc(C(C)C)oc3c2)cc1OC | inactive: -14.4% | –
83 | COc1ccc(NC(=O)Cn2cc(S(=O)(=O)c3ccccc3)c(=O)c3cc4c(cc32)OCO4)cc1 | inactive: -4.75% | –
84 | CCN1CCc2c(sc(-n3cccc3)c2C(C)NC(=O)Nc2ccc(Br)cc2)C1 (centres undefined) | inactive: -2.77% | –
85 | CCCC(=O)OCc1cnc(C)c2oc(=O)c(C(=O)Nc3cccc(C(F)(F)F)c3)cc12 | inactive: 0% | –
86 | COc1ccc(N(Cc2cccs2)C(=O)c2ccc(OC)c(Cl)c2)cc1 | inactive: -4.73% | –
87 | Cc1cccc(N2CCN(C(=O)C3CCN(S(=O)(=O)c4c(C)noc4C)CC3)CC2C)c1 (centres undefined) | inactive: -14.6% | –
88 | CCCS(=O)(=O)c1c(S(=O)(=O)CCC)c2cc(C(C)(C)C)ccn2c1C(=O)c1ccccc1 | inactive: 7.1% | –
89 | Cc1c(C(=O)Nc2ccccc2)sc2nc(-c3cc4cc(Cl)ccc4oc3=O)[nH]c(=O)c12 | inactive: -1.8% | –
90 | COc1cccc(N2CCN(C(=O)C3CCN(S(=O)(=O)c4c(C)noc4/C=C/c4ccccc4F)CC3)CC2)c1 | inactive: -4.21% | –
91 | CCC(=O)Nc1ccccc1-c1nc2ccccc2n(CC(=O)Nc2ccccc2OC)c1=O | inactive: -13.1% | –
92 | Cc1ccccc1C(=O)Nc1ccc2nc(N3CCCCC3)cc(C)c2c1 | inactive: -16.5% | –
93 | COC(=O)c1ccc(NC(=O)CC2C(=O)N(c3ccccc3)C(=O)N2Cc2ccc(F)cc2)cc1 (centres undefined) | inactive: 1.03% | –
94 | CCN(CC)C(=O)c1sc2c(c1C)c(=O)n(CCc1ccccc1)c(=O)n2Cc1cc(C)ccc1C | inactive: -2.94% | –
